Measurements: PubChem BioAssay AID1476 (National Center for Advancing Translational Sciences (NCATS), 2009)
Among all 200,000 compounds or so, about 4,500 (2.2%) were called active. The shares of active, inactive and inconclusive entries below differ from those in the screen. Calls come from the whole dose curve; as a rule, active = well fitted inhibition curve with a large enough effect; inconclusive = small, poorly fitted or top-dose-only effect, or effect the other way; inactive = flat fitted curve, though single readings scatter. Potencies beside an inconclusive call are fits to weak or partial responses and may not hold up.
Note: nearly all actives have a fitted effect of over 40% in size.
Potency is the fitted concentration of half-maximal effect; tags give direction and shape of the fitted curve.
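Throughout, for max response, negative = inhibition: plate controls were enzyme without inhibitor for no effect and buffer without enzyme for full effect.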

What follows are compounds tested against Cruzipain (Trypanosoma cruzi) (UniProt P25779) (assay: qHTS Assay for Promiscuous and Specific Inhibitors of Cruzain (without detergent)). Conditions: purified cruzain, Z-FR-AMC fluorescence, no detergent.
UniProt P25779, sequence (P25779 whole entry, looked up): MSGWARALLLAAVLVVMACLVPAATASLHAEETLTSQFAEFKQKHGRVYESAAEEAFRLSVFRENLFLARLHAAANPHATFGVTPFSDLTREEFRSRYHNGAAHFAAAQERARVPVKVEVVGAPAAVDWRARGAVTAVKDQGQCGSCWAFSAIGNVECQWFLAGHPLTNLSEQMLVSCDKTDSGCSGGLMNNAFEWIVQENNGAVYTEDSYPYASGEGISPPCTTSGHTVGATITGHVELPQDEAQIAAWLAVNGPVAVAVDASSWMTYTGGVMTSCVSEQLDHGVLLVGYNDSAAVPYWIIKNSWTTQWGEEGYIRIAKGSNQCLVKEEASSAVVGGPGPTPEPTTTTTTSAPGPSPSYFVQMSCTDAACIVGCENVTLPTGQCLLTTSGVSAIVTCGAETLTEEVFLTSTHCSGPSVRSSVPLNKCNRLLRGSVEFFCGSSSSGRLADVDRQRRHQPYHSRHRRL
Procedure, shortened: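 Purified cruzain at 1.5 nM, pre-incubated 15 min with compound at room temperature in 100 mM sodium acetate pH 5.5, 5 mM DTT, 0.00005% Triton X-100. Reaction started with 2 uM Z-FR-AMC; AMC fluorescence increase over 60 s gives rate.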
For `Cc1ccc(/C(O)=C2\C(=O)C(=O)N(c3cc(C)on3)C2c2cccc(Br)c2)cc1` (stereo unspecified), the Potency was inconclusive: 39.8 µM [activator, single point]. For `CCC(C)n1c(=N)c(C(=O)NC2CCCCC2)cc2c(=O)n3ccccc3nc21` (stereo unspecified), the Potency was inconclusive: 39.8 µM [inhibitor, single point]. With `CC(=O)Nc1ccc2nc(NC(=O)CS(=O)(=O)c3ccc(C)cc3)sc2c1` the max response, negative = inhibition was inactive: -21.1%. In the case of `COc1cc(Cl)c(C)cc1NC(c1ccccc1)c1nnc(-c2ccccc2Cl)o1` (stereo unspecified), the Potency is reported as active: 15.8 µM. With `COc1ccc(-c2noc(-c3ccc(NC4CCCC4)c([N+](=O)[O-])c3)n2)cc1OC` the Potency was inconclusive: 39.8 µM [inhibitor, single point]. For `COCCCn1c(CCC(=O)O)ccc1-c1ccc(F)cc1`, the Potency was inconclusive: 25.1 µM [activator, single point]. With `COc1ccc(-c2nc(C#N)c(NC(C)c3ccccc3)o2)cc1OC` (stereo unspecified) the Potency was inconclusive: 39.8 µM [activator, single point]. In the case of `COc1ccccc1/C=C\C=N\n1c(C2CCCCC2)n[nH]c1=S`, the Potency is reported as active: 6.31 µM. For `Cc1ccc(S(=O)(=O)Nc2ccccc2CNc2ccc(Br)cn2)cc1`, the Potency was inconclusive: 39.8 µM [inhibitor, single point]. For `COC(=O)N1c2ccccc2C23[C@@H]4CN5CCC[C@]6(CCC12C(O)(C6)C4=O)[C@H]53`, the max response, negative = inhibition was inactive: -5.43%. With `COc1ccc(Cl)cc1N(CC(=O)Nc1ccccc1SC)S(C)(=O)=O` the Potency was inconclusive: 39.8 µM [activator, single point]. `Cc1ccc(S(=O)(=O)n2ccc(-c3ccc(OCc4c(F)cccc4Cl)cc3)n2)cc1` was tested, and the Potency was active: 31.6 µM. For `CCc1cc2c(SCC(=O)c3cccs3)ncnc2s1`, the Potency was inconclusive: 1.26 µM [inhibitor, single point]. In the case of `O=C(Nc1ccc2c(c1)CCC2)c1cnn2c1NC(c1ccco1)CC2C(F)(F)F` (stereo unspecified), the Potency is reported as inconclusive: 31.6 µM [inhibitor, single point]. In the case of `CCOc1ccc(-c2nn(-c3ccccc3)cc2/C=C(\C#N)S(=O)(=O)c2ccccc2)cc1C`, the Potency is reported as inconclusive: 2 µM [inhibitor, full curve, poor fit]. `N=c1c(S(=O)(=O)c2ccccc2)cc2c(=O)n3ccccc3nc2n1CC1CCCO1` (stereo unspecified) was tested, and the Potency was inconclusive: 39.8 µM [inhibitor, single point]. For `COc1cc2c(cc1NC(=O)CCCN1C(=O)CCC1=O)oc1ccccc12`, the max response, negative = inhibition was inconclusive: 115% [activator]. With `CCOc1ccc(NC(=S)Nc2ccc(OCc3ccccc3)cc2)cc1` the Potency was inconclusive: 5.01 µM [inhibitor, full curve, poor fit]. For `Cc1c(C(=O)N2CCCCC2)oc2ccc(S(=O)(=O)N3CC(C)CC(C)C3)cc12` (stereo unspecified), the Potency was inconclusive: 39.8 µM [activator, single point]. With `Cc1noc(C)c1C(=O)N1CCC2(CCCN(C(=O)Nc3ccccc3)C2)CC1` the max response, negative = inhibition was inactive: 0.85%. `COCc1cc(C)nc2sc3c(=O)n(-c4ccccc4C(F)(F)F)nnc3c12` was tested, and the max response, negative = inhibition was inactive: 8.26%. `CCOC(=O)CSc1nc2ccc(Nc3nc(N4CCOCC4)nc(N4CCOCC4)n3)cc2s1` was tested, and the Potency was inconclusive: 31.6 µM [activator, single point]. In the case of `CCn1c(CC(=O)Nc2ccc(C)c(Cl)c2)nnc1SCc1ccc(Cl)c(Cl)c1`, the Potency is reported as active: 12.6 µM. With `CCN(Cc1ccccc1)C(c1cc2cc(C)ccc2[nH]c1=O)c1nnnn1CCOC` (stereo unspecified) the Potency was inconclusive: 39.8 µM [activator, single point]. `Cc1ccc(C2c3[nH]c4ccccc4c3CCN2C(=O)CSCc2ccc(F)cc2)cc1` (stereo unspecified) was tested, and the Potency was inconclusive: 31.6 µM [inhibitor, single point]. For `C/C(=N\NC(=O)c1cccc(S(=O)(=O)Nc2ccccc2Cl)c1)c1ccc(-n2ccnc2)cc1`, the Potency was active: 20 µM. With `Cc1ccc(-n2nc(C)c3c2NC(=O)CSC3c2ccc3c(c2)OCO3)cc1` (stereo unspecified) the Potency was inconclusive: 31.6 µM [inhibitor, single point]. In the case of `O=C(CN1C(=O)C2CC=CCC2C1=O)Nc1nnc(SCc2c(Cl)cccc2Cl)s1` (stereo unspecified), the Potency is reported as active: 15.8 µM. With `Cc1ccc2c(c1)C(c1ccccc1)N(C(=O)c1ccc(S(=O)(=O)N3CCOCC3)cc1)CC(=O)N2` (stereo unspecified) the Potency was inconclusive: 39.8 µM [activator, single point]. `COc1ccc(CNC(=O)Cn2c(-c3ccccc3)cc(C(C)=O)c2C)cc1OC` was tested, and the max response, negative = inhibition was inactive: -2.55%. `CCOC(=O)c1ccccc1NC(=O)CN(c1cccc(OC)c1)S(C)(=O)=O` was tested, and the Potency was inconclusive: 20 µM [activator, partial curve]. In the case of `CCOC(=O)c1ccccc1NC(=O)c1cnc(N2CCOCC2)c2ccccc12`, the Potency is reported as inconclusive: 39.8 µM [activator, single point]. In the case of `Cc1cc2oc(C(=O)N(Cc3ccco3)Cc3ccccc3Cl)c(C)c2cc1C`, the Potency is reported as inconclusive: 31.6 µM [inhibitor, single point]. `CCOCCc1nn2c(=O)cc(COC(=O)c3ccc(NC(=O)C(C)(C)C)cc3)nc2s1` was tested, and the max response, negative = inhibition was inactive: 6.8%. With `CCOc1ccc(CNC(=S)N/N=C\c2ccc([N+](=O)[O-])cc2)cc1` the Potency was active: 20 µM. `Oc1c(C(c2cccs2)N2CCN(c3ccccc3)CC2)ccc2cccnc12` (stereo unspecified) was tested, and the Potency was inconclusive: 39.8 µM [inhibitor, single point]. In the case of `COc1ccc(N2CCN(S(=O)(=O)c3ccc(Br)s3)CC2)cc1`, the max response, negative = inhibition is reported as inactive: -3.81%. `COCC(C)NC(=O)CSc1nc(-c2ccccc2)c(-c2ccccc2)o1` (stereo unspecified) was tested, and the Potency was inconclusive: 31.6 µM [activator, single point]. In the case of `Cc1cccc(NC(=O)CNC(=O)COc2ccc(-c3ccc(C#N)cc3)cc2)c1C`, the Potency is reported as inconclusive: 39.8 µM [inhibitor, single point]. With `CCc1cccc(C)c1NC(=O)c1cnn(-c2ccc(OC)cc2)c1C1CCN(C(=O)OC(C)(C)C)CC1` the Potency was inconclusive: 31.6 µM [activator, single point]. In the case of `COc1ccc(CNc2ccnc(-c3ccoc3)n2)c(OC)c1`, the max response, negative = inhibition is reported as inactive: -14.8%.
